# Results: article PMC4336329 (PLoS ONE, 2015)
# About 2,200 (0.71%) of roughly 310,000 compounds showed an effect of 50% or more. Effects have a minus sign here. Some of the results follow.
# Molecular target: human ether-à-go-go-related gene (hERG) potassium channel (human, UniProt Q12809)
# Test: primary screen, population patch clamp on CHO cells stably expressing hERG
# human ether-à-go-go-related gene (hERG) potassium channel, sequence (Q12809 whole entry, looked up): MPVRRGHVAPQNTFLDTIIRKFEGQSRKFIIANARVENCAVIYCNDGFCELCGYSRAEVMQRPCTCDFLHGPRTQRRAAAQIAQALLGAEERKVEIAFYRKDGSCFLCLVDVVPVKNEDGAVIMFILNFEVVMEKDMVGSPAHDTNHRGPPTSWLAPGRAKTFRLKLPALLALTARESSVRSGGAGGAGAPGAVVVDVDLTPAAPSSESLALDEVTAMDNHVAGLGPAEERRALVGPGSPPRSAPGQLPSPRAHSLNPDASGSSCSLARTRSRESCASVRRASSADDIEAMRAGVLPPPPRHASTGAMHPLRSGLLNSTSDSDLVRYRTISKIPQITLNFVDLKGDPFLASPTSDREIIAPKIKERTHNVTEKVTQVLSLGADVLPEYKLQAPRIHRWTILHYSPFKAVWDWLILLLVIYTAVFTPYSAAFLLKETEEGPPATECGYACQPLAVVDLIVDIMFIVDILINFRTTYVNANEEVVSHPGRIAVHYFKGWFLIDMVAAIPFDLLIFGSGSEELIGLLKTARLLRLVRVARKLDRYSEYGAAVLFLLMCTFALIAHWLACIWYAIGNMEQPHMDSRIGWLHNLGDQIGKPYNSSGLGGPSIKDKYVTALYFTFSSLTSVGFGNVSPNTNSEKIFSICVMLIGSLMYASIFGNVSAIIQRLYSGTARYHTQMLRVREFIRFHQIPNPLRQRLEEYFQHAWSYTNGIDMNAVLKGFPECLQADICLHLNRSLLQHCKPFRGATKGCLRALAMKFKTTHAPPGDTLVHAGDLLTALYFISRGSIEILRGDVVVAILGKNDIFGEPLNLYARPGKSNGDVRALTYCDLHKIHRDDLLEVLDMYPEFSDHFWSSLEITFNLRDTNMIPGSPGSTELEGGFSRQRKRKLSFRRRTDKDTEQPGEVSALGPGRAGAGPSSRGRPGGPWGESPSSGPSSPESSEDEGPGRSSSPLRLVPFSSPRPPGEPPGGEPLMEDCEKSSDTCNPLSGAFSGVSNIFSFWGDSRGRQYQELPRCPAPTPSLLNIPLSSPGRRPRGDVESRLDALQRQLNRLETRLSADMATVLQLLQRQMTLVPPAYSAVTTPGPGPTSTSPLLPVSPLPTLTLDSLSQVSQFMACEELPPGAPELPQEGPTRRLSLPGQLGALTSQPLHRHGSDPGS
row,Compound,"hERG current change (%, negative = inhibition) at 1uM"
1,CSc1ccc(/C=N/N2CCN(Cc3ccc(Cl)cc3)CC2)cc1,4.89%
2,C[C@]12CC[C@H]3C(=CCc4cc(O)ccc43)[C@@H]1CCC2=O,14%
3,Cc1ccccc1NC(=O)CCSc1nnnn1-c1ccccc1,9.92%
4,Cc1cc(-c2nn(-c3ccccc3F)cc2CN2CCN(c3ccccn3)CC2)c(C)s1,10.2%
5,CCOC(=O)C1(Cc2ccccc2)CCN(Cc2cn[nH]c2-c2ccccc2)CC1,1.58%
6,Cc1nn(C)cc1/C=C/C(=O)c1ccccc1,-8.56%
7,COc1cc(-c2cc(C(=O)Nc3ccc(S(N)(=O)=O)cc3)c3ccccc3n2)cc(OC)c1OC,20%
8,Cc1ccc(NC(=O)CSc2ccc3nnc(-c4cccnc4)n3n2)cc1,5.38%
9,CCCCNC(=O)CNC(=S)N(CCCN1CCOCC1)Cc1cccs1,-0.381%
10,CCOc1ccccc1C(=O)NCCCCCC(=O)O,18.5%
11,CC(=O)c1cccc(NC(=S)N2CCN(CCN3C(=O)c4cccc5cccc(c45)C3=O)CC2)c1,11.7%
12,O=C(NCCc1nc2ccccc2[nH]1)/C(=C/c1ccc(F)cc1)NC(=O)c1ccco1,-25.4%
13,NC(=O)c1c(NC(NC(=O)c2ccco2)(C(F)(F)F)C(F)(F)F)sc2c1CCCC2,9.43%
14,O=C(Nc1cccc(Cl)c1N1CCOCC1)c1cccnc1Cl,8.87%
15,COC(=O)[C@@H](Cc1c[nH]c2ccccc12)NC(=O)c1cc(=O)[nH]c2ccccc12,13.2%
16,COc1ccc(C(=O)NCc2ccc(C(=O)NCC(OC)OC)cc2)cc1OC,11.9%
17,CCC(=O)Nc1cc(OC)c(NC(=O)c2ccccc2)cc1OC,8.66%
18,Cc1ccc(OCC(=O)NCCNC(=O)c2ccc(C)nc2)cc1,22.4%
19,CC(C)(C)c1ccc(S(=O)(=O)NCCOCC(F)(F)C(F)F)cc1,14.4%

row,Compound,"hERG current change (%, negative = inhibition) at 1uM"
1,Cc1cc(Cl)c(OCCCn2ccnc2)c(Br)c1,1.12%
2,Cc1ccc(S(=O)(=O)N2CCCCC2)cc1NC(=O)COC(=O)c1cc[n+]([O-])cc1,5.5%
3,CC(=O)c1c(C)[nH]c(C(=O)CSc2nnc(N)s2)c1C,11.4%
4,O=c1[nH]c(N2CCCCC2)nc2c1CCCC2,-3.9%
5,Cc1nc2ccccc2c2oc(C(=O)N3CCN(c4ccc([N+](=O)[O-])cc4)CC3)cc12,13.8%
6,COc1ccc(O)c(CN2CCCC(C(=O)c3ccccc3SC)C2)c1 (stereo not drawn),13.6%
7,Nc1ccc(CCn2ccnc2)cc1,22.6%
8,O=C(c1ccccc1)c1ccc2nc(N3CCCCC3)c3nncn3c2c1,14.2%
9,CCOC(=O)n1cc(-c2cnc(CNC(=O)C(C)(c3ccccc3)c3ccccc3)o2)c2ccccc21,1.9%
10,Cc1ccc(-c2nc(N)n(C(=O)c3cccs3)n2)cc1,16.9%
11,CCCCOc1ccc(C(=O)NCC(=O)NC(C)CCc2ccccc2)cc1 (stereo not drawn),5.14%
12,O=C(Nc1ccc(NC(=O)c2cccs2)cc1)c1ccc2c(c1)OCO2,6.34%
13,COCCNC(=O)c1ccc(N2CCC3(CC2)OCCO3)c([N+](=O)[O-])c1,11.7%
14,CCOC(=O)c1c(NC(=O)COC(=O)CNC(=O)c2ccc(Cl)cc2Cl)sc(C(=O)N(C)C)c1C,20.1%
15,COC(=O)c1ccccc1NC(=O)CSc1nc2cccnc2n1C,11.5%
16,C=CCNC(=O)c1cccc(OC2CCN(CC(C)(C)C)CC2)c1,11.7%
17,CCOC(=O)N1CCN(c2nc(-c3ccc(F)cc3)cs2)CC1,12.6%
18,Cc1[nH][nH]c(=O)c1C(c1cc(Br)ccc1O)c1c(C)[nH][nH]c1=O,12%
19,CCOCC(=O)Nc1cc(C(F)(F)F)ccc1Oc1cccc(Br)c1,12.8%

row,Compound,"hERG current change (%, negative = inhibition) at 1uM"
1,CCc1cc2c(=O)[nH]c(COC)nc2s1,22.1%
2,Cc1cc2cc3c(cc2nc1SCC(=O)N1CCOCC1)OCO3,4.84%
3,CCOc1ccccc1N1Cc2ccccc2C1,14.1%
4,Cc1cc(Cl)ccc1OCCCC(=O)N1CCCc2ccccc21,-3.95%
5,Cc1ccc(CSc2nnc(CNc3ccc(F)cc3)o2)cc1,13.1%
6,Cc1cc(NC(=O)CS(=O)(=O)c2cn(C)c3ccccc23)no1,21.7%
7,Cc1ccc(CC23CN4CCN(CC(C4)C2O)C3)c(C)c1 (stereo not drawn),14.8%
8,Cc1ccsc1S(=O)(=O)N1CCCC(CCC(=O)NCc2ccccc2F)C1 (stereo not drawn),13.2%
9,Cc1onc(-c2ccccc2Cl)c1-c1nc(-c2ccccn2)no1,1.77%
10,CCOC(=O)C1CCCN(S(=O)(=O)c2cccc3nsnc23)C1 (stereo not drawn),12.1%
11,CCOc1ccc(C2C(C#N)=C(N)Oc3c2c(=O)oc2ccccc32)cc1 (stereo not drawn),-5.07%
12,O=C(Nc1cccc(S(=O)(=O)N2CCOCC2)c1)C1=NN(c2ccccc2)C(=O)CC1,6.75%
13,Cc1ccc(C2c3c(oc4cc(C)c(C)cc4c3=O)C(=O)N2CCCN2CCOCC2)cc1 (stereo not drawn),-0.143%
14,Cc1ccc(-n2nc(CN3CCOCC3)c(-c3ccccc3)c2N)cc1Cl,13.7%
15,CCN(Cc1ccc(NC(C)=O)cc1)CC1CCCN(CCc2cccc(F)c2)C1 (stereo not drawn),9.42%
16,CN(C)S(=O)(=O)Oc1ccsc1C(=O)Nc1ccc(Br)cc1,8.42%
17,Cc1nc(C)c(-c2csc(Nc3cccnc3)n2)s1,13.7%
18,Clc1ccc(CO/N=C/c2c(-c3ccccc3)nc3n2CCS3)c(Cl)c1,12.8%
19,CC(=O)c1cn(-c2ccc([N+](=O)[O-])cc2)c(=O)n(C)c1=O,-7.77%
